Source: PubChem BioAssay (NCI)
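Growth conditions: 96-well plates. Treatment: test compound, 48 hours, 5 concentrations. Analysis: linear interpolation between bracketing concentrations; unreached endpoints set to highest concentration. GI50 is the concentration that inhibits growth by half. TGI denotes the concentration required for complete inhibition of growth.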

Each compound was assayed on NCI-H322M lung (assay: inhibition of tumour cell growth, NCI panel, 48 h).
`CC(=O)Nc1nc(-c2ccc(N3CCN(C)CC3)c(NS(=O)(=O)c3ccc(C(F)(F)F)cc3)c2)cs1` was tested, and the GI50 was 7.7 µM and the TGI was 14.8 µM.
Compound `Cc1cc(N=C2NC(=O)S/C2=C\c2ccc(F)cc2)n[nH]1` has a GI50 of 3.27 µM and a TGI greater than 100 µM.
`CC(C)(C)Nc1nc2cc(Cl)c(Cl)cc2nc1S(C)(=O)=O` was tested, and the GI50 was 15.7 µM and the TGI was 29.3 µM.
Work on `CC1(C)CC[C@]2(C(=O)O)CC[C@]3(C)C(=CCC4[C@@]5(C)C[C@@H](O)[C@@H]6OC(c7ccc(F)cc7)OC[C@@]6(C)C5CC[C@]43C)C2C1` (stereo partly drawn) yielded a GI50 of 3.91 µM and a TGI of 22.3 µM.
